Results: the supplement of paper PMC3724861
The other results are listed elsewhere or left out.

What follows are sequences tested on T1, Caupolican (Caup) homeodomain DNA-binding domain (assay: PBM E-score (8-mer, recovered from the published 9-mer minima) (E-score (dimensionless, -0.5 to 0.5)); Drosophila protein; higher = stronger relative binding preference, active = 0.31 or more).
T1 sequence: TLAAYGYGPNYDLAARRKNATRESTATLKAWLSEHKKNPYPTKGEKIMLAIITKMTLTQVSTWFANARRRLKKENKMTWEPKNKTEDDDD
Summary of the method: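 An enrichment score, with higher meaning stronger, expresses relative binding preference for each short DNA word. The protein used was Caup's homeodomain DNA-binding domain (residues 214-303), produced by in vitro transcription and translation and tested at 100 nM on custom-designed protein binding microarrays. The 8-mer values were recovered from published 9-mer scores, each equal to the lower of its two constituent 8-mer scores.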

Sequence | PBM E-score
GGGGACAC | inactive: -0.0791
CTTAGTGC | inactive: -0.0352
GAAGGCAC | inactive: -0.111
CCATGTCA | active: 0.398
GGCAGCCC | inactive: -0.299
GTATACAC | inactive: 0.249
CCTGAACC | inactive: 0.0376
ACAGGCAT | inactive: 0.0723
AGGATCGA | inactive: 0.0109
AGCCGGAG | inactive: -0.17
ACTTGCGA | inactive: -0.0428
AAGTATAT | inactive: 0.117
CCGGACCA | inactive: -0.157
ACAAGCCC | inactive: 0.0654
AAACGTGC | inactive: 0.0258
CGAATTAA | inactive: 0.0467
AGCTTCCG | inactive: -0.202
CCATGTCG | active: 0.362
ATGGCGTC | inactive: -0.107
AGTTTATA | inactive: 0.19
CCCATAAC | inactive: 0.0433
AGGTAAAG | inactive: 0.0737
AATTACTG | inactive: 0.174
ACTGCGCA | inactive: -0.105
ACAGTTGA | inactive: 0.0862

Sequence | PBM E-score
CATGGACC | inactive: -0.0181
ACCCCATC | inactive: -0.158
ATCCGACC | inactive: 0.0552
ATCAGTAG | inactive: 0.125
ACATATGC | inactive: 0.198
CGAGTATA | inactive: 0.0699
TCTTGCAA | inactive: 0.0461
ATATTTTA | inactive: 0.119
CGCTAACA | inactive: 0.156
TGGAGTAA | inactive: 0.0245
CGAAATCC | inactive: -0.0251
CCCAGGGA | inactive: -0.278
AACAGCCT | inactive: 0.00139
ATCCTGAC | inactive: 0.0403
ACGTTATC | inactive: 0.0197
AGCACTGA | inactive: -0.0101
GCCACCGA | inactive: -0.108
AGACCGAC | inactive: -0.00849
AGAGTTGG | inactive: -0.0475
GGTGGCAA | inactive: -0.0972
CGTCTGAG | inactive: -5e-05
ATAATTGC | inactive: 0.0527
CAACGTAA | inactive: 0.146
CGATAAGA | inactive: 0.0571
CATGTCTC | active: 0.314

Sequence | PBM E-score
CAAGGTAC | inactive: 0.162
CGTTCATC | inactive: -0.0383
ATTACAGA | inactive: 0.208
AAGAAGTG | inactive: 0.019
ATACGTAC | inactive: 0.151
CCCTGGAG | inactive: -0.219
ATTGTAGG | inactive: 0.185
AGGGGACA | inactive: 0.0584
CCAAATTC | inactive: -0.0349
ATGACCCA | ≥ 0.0525
CCCATAGC | inactive: -0.184
CTATATTA | inactive: 0.168
CCTACCTC | inactive: -0.19
TACTTCAA | inactive: 0.0215
CTACTGAA | inactive: -0.0489
CGGGCAAG | inactive: -0.19
CCCCCGTA | inactive: -0.259
GTCGGGAA | inactive: 0.0947
CCATATTA | inactive: 0.105
AAATGCAC | inactive: 0.0478
TATGCCCA | inactive: -0.107
ATCAAGTG | inactive: 0.0753
TAGTGTAA | inactive: 0.207
GGCCTCTA | inactive: -0.17
GAGATAGA | inactive: -0.0381

Sequence | PBM E-score
TCCATGGA | inactive: 0.0552
AAACCCGA | inactive: 0.00051
AAGGAAGA | inactive: -0.049
ACCTGCTG | inactive: -0.0251
CGCGAGAC | inactive: -0.026
CCCATGTA | active: 0.326
AGGCATGC | inactive: -0.0249
GTGATTGA | inactive: 0.148
CGCAAACC | inactive: -0.0612
AAGTGTAC | inactive: 0.304
GGTTGAAA | inactive: 0.0224
AACTTCAG | inactive: -0.0565
AGGAGTTC | inactive: -0.0161
GGGCGTAA | inactive: -0.112
CTGGCCTC | inactive: -0.317
CCTCTAAG | inactive: -0.165
CCTAAGTC | inactive: -0.13
AGTGAAAT | inactive: 0.102
ACGGTGGA | inactive: -0.0915
CCTGAACA | inactive: 0.172
GAGCCCAC | inactive: -0.209
AGGCAGAC | inactive: -0.122
GACTTCTA | inactive: -0.00358
ACTCGACT | inactive: 0.0127
ACTATAGG | inactive: 0.0488

Sequence | PBM E-score
CAAAGTAG | inactive: 0.035
AATCTCCA | inactive: -0.0273
CGGGGGAC | inactive: -0.287
CATTGGAA | inactive: 0.0314
ACCATCAG | inactive: -0.00028
CCCTGAGC | inactive: -0.154
ACTTCACC | inactive: -0.105
AGCTTATA | inactive: 0.0727
ATTGTACG | inactive: 0.203
GTCCAGTA | inactive: 0.0872
AACACAAT | active: ≥ 0.319
GCTATGAA | inactive: 0.0275
GAAACTAA | inactive: 0.00733
ATACACGC | inactive: 0.275
ATCGGGTG | inactive: -0.151
CTGCCCCA | inactive: -0.191
AATCCGCA | inactive: -0.0689
CTGGCGTA | inactive: -0.124
CTATGGTC | inactive: -0.105
AAGGTATC | inactive: -0.0367
AGGGCCTA | ≥ -0.09
CTGGCATC | inactive: -0.0567
ACGCTTTC | inactive: -0.0657
TCCGGTCA | ≥ -0.0188
AATGTGCT | inactive: 0.0465

Sequence | PBM E-score
GATCATGA | inactive: 0.0824
CTCATCAC | inactive: -0.0312
GCTGCATA | inactive: 0.0163
CACCTTGC | inactive: 0.00581
TGGCTACA | ≥ 0.145
AAGGGAGA | inactive: -0.0421
CAAACAAA | inactive: 0.196
AAGTGCTA | ≥ 0.0785
CGACGGTC | inactive: -0.132
GGTTGGAC | inactive: -0.0858
CAAACAGC | inactive: 0.168
AGCGTCGA | inactive: 0.017
AATGGCCA | inactive: -0.155
AGCTTTCA | inactive: -0.00247
ACCCCGAT | inactive: -0.182
CGCCCGAG | inactive: -0.215
ATAACATA | active: 0.356
CTGGGTAA | inactive: -0.0481
ACTCCTAA | inactive: -0.0226
TCCACTAA | inactive: 0.00095
AAGGGCCA | ≥ -0.112
GGTTCAAC | inactive: -0.0443
AAGATAGT | inactive: 0.0255
GAACACGA | active: 0.32
ACAAGCCG | inactive: 0.146

Sequence | PBM E-score
ATAGAGTA | inactive: 0.0752
TCGACACA | inactive: 0.232
GGTGCGAA | inactive: -0.039
ACCATTCA | inactive: 0.0576
CAACGCGG | inactive: -0.122
ACAGCCGC | inactive: -0.149
CCCAGATA | inactive: -0.142
ATTGACCG | inactive: 0.0782
ATCTTATA | inactive: 0.0876
CCAGCTCA | inactive: -0.14
ACTTTGTC | inactive: 0.086
CCGGCTGA | inactive: -0.126
CACTACCG | inactive: -0.0583
GGGGCGTA | inactive: -0.201
AAGAAAAG | inactive: 0.0402
TCGTACAA | active: ≥ 0.37
CCAAGCCA | inactive: -0.112
AATAACAA | inactive: 0.28
GAAGGCCA | inactive: -0.295
CACTACTG | inactive: 0.086
ACAGTATC | inactive: 0.172
AGCTAACT | inactive: -0.00598
ACGCTTGG | inactive: -0.0244
CTGCTTGA | inactive: -0.0343
AGATAGAC | inactive: 0.053

Sequence | PBM E-score
GAATCAGA | inactive: 0.085
ATATATGC | inactive: 0.118
CAAGATTC | inactive: 0.00713
ACGCAGAT | inactive: 0.0203
CTCCTTCC | inactive: -0.0839
CAAGGGCG | inactive: -0.0867
ATCTGGGA | inactive: -0.113
CGCGCATC | inactive: -0.0873
GACGGACC | inactive: -0.0214
GCTATGGA | inactive: -0.0501
AGGGAACT | inactive: -0.0999
ATGAATAA | inactive: 0.173
CGGTTTAG | inactive: -0.0743
AGCAGAAT | ≥ 0.0258
TCCAGCAA | ≥ 0.0234
AGTCGGAA | inactive: 0.015
GGGTGACA | inactive: 0.059
ATGTCAAC | active: 0.324
AGGATCCG | inactive: -0.0867
TAAACACA | ≥ 0.273
AATGATTG | inactive: 0.142
AGGTTCGA | ≥ 0.0215
ACAAAGCC | inactive: -0.0102
AGATCGGG | inactive: -0.2
GCTCTAAA | inactive: -0.0235

Sequence | PBM E-score
ATAAAAGA | inactive: 0.0174
CCTATTCC | inactive: -0.00635
GCGTCGGA | inactive: -0.0823
CTACGATA | inactive: 0.1
GTGGCGCA | inactive: -0.102
ATCACGTC | inactive: 0.119
AGACTGTA | inactive: 0.0542
ACTGTCGG | inactive: -0.0828
AATGGTGG | inactive: -0.0687
AATGAAAA | inactive: -0.00519
TCCTGAAA | inactive: -0.0805
CCGTCCAC | inactive: -0.0851
AGGTTATC | inactive: -0.00432
CTGTGCAC | inactive: -0.0981
CAACAAGG | active: 0.338
AAAAATGA | inactive: 0.113
GCCACAGA | inactive: -0.0438
CAACTATC | inactive: 0.00352
CGAAACCG | inactive: -0.0748
AATGGGCA | inactive: -0.0275
GGTGGCAC | inactive: -0.208
CTCCATCA | inactive: -0.0502
GCCGTTAC | inactive: -0.00869
CTCCTGTC | inactive: 0.109
